Laboratory results from patent US20050070689A1 (Genentech, published 2005).

T1: TACIs expressed on transfected COS 7 cells (human, UniProt O14836 1-292)
T1 sequence: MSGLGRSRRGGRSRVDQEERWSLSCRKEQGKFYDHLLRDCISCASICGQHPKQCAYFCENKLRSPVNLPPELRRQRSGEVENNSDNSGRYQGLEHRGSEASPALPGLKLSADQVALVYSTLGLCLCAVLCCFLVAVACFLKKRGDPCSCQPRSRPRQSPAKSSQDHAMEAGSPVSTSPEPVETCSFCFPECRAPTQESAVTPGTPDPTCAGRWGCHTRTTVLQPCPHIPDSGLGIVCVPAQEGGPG

T2: human BR3 expressed on transfected COS 7 cells (human, UniProt Q96RJ3 1-184)
T2 construct: also called hBR3
T2 sequence: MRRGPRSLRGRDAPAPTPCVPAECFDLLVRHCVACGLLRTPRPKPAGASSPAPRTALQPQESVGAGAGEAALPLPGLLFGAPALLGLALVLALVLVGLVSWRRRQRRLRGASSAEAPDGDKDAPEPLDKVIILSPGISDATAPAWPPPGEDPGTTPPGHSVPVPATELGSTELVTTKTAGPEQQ

T3: Flag-APRIL (human, UniProt O75888 105-250)
T3 construct: Purified on M2 anti-Flag resin
T3 sequence: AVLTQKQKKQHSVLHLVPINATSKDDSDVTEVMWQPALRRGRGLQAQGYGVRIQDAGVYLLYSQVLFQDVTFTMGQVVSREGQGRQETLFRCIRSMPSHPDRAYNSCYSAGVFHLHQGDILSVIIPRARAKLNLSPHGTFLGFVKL


Legend:
[1] = molecular target: T1, TACIs expressed on transfected COS 7 …; assay: AP-TALL-1 staining of transfected cells, in situ AP activity
[2] = molecular target: T2, human BR3 expressed on transfected COS …; assay: expression cloning: AP-TALL-1 conditioned medium on COS 7 cells transfected with cDNA pools, in situ AP staining
Procedure: To identify a receptor for TALL-1, a cDNA expression library was constructed in pRK5 vector (EP 307,247, published Mar. 15, 1989) using PolyA+ mRNA derived from human spleen and IM-9 cells [Flanagan et al., Cell, 63:185 (1990); Tartaglia et al., Cell, 83:1263-1271 (1995)]. Pools of ˜1000 cDNA clones (Miniprep DNA (Qiagen)) from the library were transfected (using Lipofectamine) into COS 7 cells (ATCC) in 12 well plates using Fugene 6 (Roche Molecular Biochemicals), which after 36-48 hours, were then incubated with AP-TALL-1 conditioned medium, washed, and stained for AP activity in situ. [Yan et al., supra (2000)]. A positive pool was broken down to successively smaller size pools which contained neither TACI nor BCMA. After rounds of screening, cDNA encoding an AP-TALL-1 binding activity was identified. […] This polypeptide (amino acid residues 1-184 of FIG. 6B) was referred to as BR3. (Another cDNA encoding an AP-TALL-1 and AP-APRIL binding activity was also identified, and this molecule is identified as TACIs, described further below).

Flag-APRIL = molecular target: T3, Flag-APRIL; assay: co-immunoprecipitation with protein A-agarose, anti-Flag Western blot
Procedure: One μg of the purified Flag-APRIL or Flag-TALL-1 was incubated with 1 μg of purified human immunoadhesin containing the IgG1-Fc fusion of the ECD of BR3 or TACI overnight at 4° C. The TACI-ECD.hFc immunoadhesins were prepared by methods described in Ashkenazi et al., Proc. Natl. Acad. Sci., 88:10535-10539 (1991). The immunoadhesin constructs consisted of amino acids 2-166 of the human TACI polypeptide (see FIG. 1). The TACI-ECD constructs were expressed in CHO cells using a heterologous signal sequence (pre-pro trypsin amino acids 1-17 of pCMV-1 Flag (Sigma)) and encoding the human IgG1 Fc region downstream of the TACI sequence, and then purified by protein A affinity chromatography. The BR3-ECD immunoadhesins were prepared by methods described in Ashkenazi et al., as cited above. The immunoadhesin constructs consisted of amino acids 2-62 of the human BR3 polypeptide (see FIG. 6B). […]
The mixture was subjected to immunoprecipitation through the receptor-immunoadhesin with protein A-agarose (Repligen). The immunoprecipitates were then analyzed by Western blot with horseradish peroxidase-conjugated anti-Flag M2 mAb (Sigma) to detect the Flag-tagged ligands. Flag-TALL-1, but not Flag-APRIL, was readily detected in complex with hBR3-hFc whereas TACI-hFc bound both Flag-TALL-1 and Flag-APRIL.

binding result [1] | binding result [2] | Binder | binding result (Flag-APRIL)
binds | binds | AP-TALL-1 (ligand, Used as conditioned medium of transfected 293 cells; AP is at the N-terminus of TALL-1; Flag precedes AP (as described for AP-APRIL); not shown: human placental alkaline phosphatase (AP), amplified from pAPtag-5) not shown | –
– | – | hBR3-hFc (Fc fusion, also called BR3-ECD immunoadhesin; not shown: human IgG1 Fc region) not shown | no binding (tested: 1 µg of each protein)
